# Screen size: about 220,000 compounds; about 2,300 (1%) were called active. The inconclusive results got no clear call from the source; some entries with a clear call stand among them for comparison. The call rests on the fitted dose curve; in most records, active means well fitted inhibition curve with a large enough effect; inconclusive means small, poorly fitted or top-dose-only effect, or effect the other way; inactive means no such curve, though single readings can be large or run the other way. No potency is given beside an inconclusive call; the fits are too rough.
# Molecular target: Neuropeptide S receptor (Homo sapiens) (UniProt Q6W5P4)
# Assay: qHTS Assay for Antagonists of the Neuropeptide S Receptor: cAMP Signal Transduction; further: nearly all actives have a fitted effect of over 50% in size
# Details: CHO-NPSR cells, cAMP TR-FRET, antagonist mode; activity change, negative = inhibition: at 38.3 µM (top of the series) unless noted
# On the % scale 0 is the no-effect control and ±100 the full control effect; potency means the concentration at half of the fitted maximal effect; tags describe the fitted curve by direction and shape.
# Chain of UniProt Q6W5P4 (Q6W5P4 whole entry, looked up): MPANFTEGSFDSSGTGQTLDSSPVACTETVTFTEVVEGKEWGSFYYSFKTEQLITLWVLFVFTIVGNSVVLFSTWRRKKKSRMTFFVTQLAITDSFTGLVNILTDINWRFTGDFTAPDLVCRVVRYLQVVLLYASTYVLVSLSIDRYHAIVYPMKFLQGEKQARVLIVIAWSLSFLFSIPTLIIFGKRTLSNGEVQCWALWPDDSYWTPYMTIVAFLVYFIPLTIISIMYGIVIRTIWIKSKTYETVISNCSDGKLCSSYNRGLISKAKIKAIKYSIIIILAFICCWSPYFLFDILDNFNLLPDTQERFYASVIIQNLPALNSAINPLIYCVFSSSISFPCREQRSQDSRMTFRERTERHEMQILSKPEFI
SMILES,Potency,"activity change, negative = inhibition"
Fc1ccc(N2CCN(C(c3cccs3)c3nnnn3C3CCCC3)CC2)cc1 (stereo unspecified),"inconclusive [inhibitor, partial curve]",–
COc1cccc(CN2CCN(Cc3ccc(OC)c(OC)c3)CC2CCO)c1 (stereo unspecified),inactive,–
CCSCc1nc2ccccn2c1Br,inactive,–
Cc1c(C(=O)O)sc2ncnc(N3CCCCC3C)c12 (stereo unspecified),inactive,–
Cc1nnc(Sc2cc(NCCCO)c([N+](=O)[O-])c3nonc23)s1,"inconclusive [inhibitor, single point]",–
Cc1nn(Cc2ccccc2)c(Cl)c1/C=C1\NC(=S)NC1=O,inactive,–
CN(C)c1nc(=NCc2ccco2)ss1,"inconclusive [activator, full curve]",–
O=S(c1ccc2ccccc2c1)c1cnns1 (stereo unspecified),active: 10 µM,–
CCn1ncc(Br)c1C(=O)Nc1ccccc1OC,inactive,–
Oc1cc(NCc2cccnc2)ccc1-c1nc2ccccc2o1,"inconclusive [inhibitor, partial curve]",–
CCOC(=O)C1CCCN(S(=O)(=O)c2ccccc2)C1 (stereo unspecified),inactive,–
C=CCn1c(Cc2c[nH]c3ccccc23)n[nH]c1=S,–,inactive: -13.7% [at 7.67 µM]
Nc1[nH]n(-c2ccccc2)c(=O)c1N=Nc1ccc2c(c1)OCO2,inactive,–
Cc1ccc(C(=O)NCCOC23CC4CC(CC(C4)C2)C3)cc1,"inconclusive [inhibitor, single point]",–
Cc1ccc(NC(=O)Cn2cnc3sc(C(=O)NCc4ccco4)c(C)c3c2=O)cc1Cl,"inconclusive [inhibitor, single point]",–
Cn1ncc2c(Nc3ccccc3Cl)nc(Nc3ccccc3Cl)nc21,"inconclusive [activator, partial curve]",–
CCC1CCCCN1CCCNC(=O)c1ccc(N2CCOCC2)c(NS(=O)(=O)c2ccc(OC)cc2)c1 (stereo unspecified),inactive,–
CCOC(=O)C1=C(C)C(c2ccccc2)NC(=S)N1 (stereo unspecified),inactive,–
Cc1nn(CCC(=O)NNC(=S)Nc2ccc(Cl)cc2)c(C)c1[N+](=O)[O-],inactive,–
CCc1ccc(-c2nc(CN3CCC(C(=O)N4CCN(c5ccccc5)CC4)CC3)c(C)o2)cc1,"inconclusive [inhibitor, single point]",–
COc1ccc(C(=O)CSc2nnc(-c3cccs3)n2-c2ccccc2)cc1,"inconclusive [inhibitor, single point]",–
Cc1ccc(NC(=O)c2ccco2)c([N+](=O)[O-])c1,inactive,–
CSc1cccc(NC(=O)/C=C/c2ccc(Cl)cc2)c1,"inconclusive [inhibitor, single point]",–
N#C/C(=C\c1cc(Cl)ccc1O)C(=O)NC1CCCCC1,"inconclusive [inhibitor, partial curve, poor fit]",–
COc1cnc(-c2ccccn2)nc1Sc1ccccc1,inactive,–
Fc1ccc(NC(=S)Nc2ccc(F)c(Cl)c2)cc1Cl,"inconclusive [inhibitor, single point]",–

SMILES,Potency,"activity change, negative = inhibition"
CCCCC[C@H](CC(=O)NO)C(=O)N[C@H](C(=O)N1CCC[C@H]1CO)C(C)C,"inconclusive [activator, single point]",–
Cc1cc(OCC(=O)Nc2ccc3oc(-c4ccncc4)nc3c2)ccc1Cl,inactive,–
Fc1ccc2[nH]c3c(c2c1)CN(C(=S)NCc1ccccc1)CC3,inactive,–
Cc1csc2c(SCC(=O)NNC(=O)C(Cl)Cl)ncnc12,inactive,–
Cc1cccc2cc(CN(Cc3ccccc3)C(=O)c3cccc(F)c3)c(Cl)nc12,"inconclusive [inhibitor, single point]",–
CN(C)c1ccc(/C=C2\C(=O)Nc3ccccc32)cc1,"inconclusive [inhibitor, single point]",–
O=C(NN1C(=O)/C(=C/c2ccc(O)c([N+](=O)[O-])c2)SC1=S)c1ccccc1Cl,active: 6.31 µM,–
N#Cc1cc2c(nc1SCC(=O)N1CCCCC1)CCCCC2,"inconclusive [inhibitor, single point]",–
O=[N+]([O-])/C(C(Cl)=C(Cl)Cl)=C(/Sc1ccccc1)N1CCCCC1,"inconclusive [activator, single point]",–
C/C(Cl)=C\Cn1c(Nc2ccc(C)cc2)nc2c1c(=O)n(C)c(=O)n2C,inactive,–
CC1(C)OC(C(=O)NC2CCCCC2)C(C(=O)NC2CCCCC2)O1 (stereo unspecified),"inconclusive [inhibitor, full curve, poor fit]",–
CCOC(=O)CSc1nc2cc(OCC)ccc2cc1C#N,inactive,–
Cc1ccc(CNC(=O)c2cccc(OCc3c(C)noc3C)c2)cc1,"inconclusive [inhibitor, single point]",–
Nc1ccccc1-c1n[nH]c(=S)s1,"inconclusive [inhibitor, single point]",–
NNC(=O)c1ccc(COc2ccccc2)cc1,inactive,–
Cc1csc(SCC(=O)Nc2cc(S(=O)(=O)N3CCCC3)ccc2Cl)n1,inactive,–
COc1ccccc1C(=O)/C=C/c1ccc(N2CCCCC2)c([N+](=O)[O-])c1,"inconclusive [inhibitor, single point]",–
CCC(C)n1cnc2c(c1=O)c1nc3ccccc3nc1n2Cc1ccc2c(c1)OCO2 (stereo unspecified),"inconclusive [inhibitor, single point]",–
CCc1cc2c(NCC3CCCO3)ncnc2s1 (stereo unspecified),inactive,–
CCN1/C(=C/C(C)=O)Sc2ccc(OC)cc21,"inconclusive [inhibitor, partial curve]",–
CC(C)(C)C(=O)c1no[n+]([O-])c1/C(=N/O)C(C)(C)C,"inconclusive [inhibitor, single point]",–
CC(C)=CCCC1(C)C=Cc2c(c(C)cc3c2[nH]c2cc(O)ccc23)O1 (stereo unspecified),"inconclusive [inhibitor, single point]",–
CCCCCCCCCCCCOC(=O)C[N+](C)(C)C,"inconclusive [inhibitor, single point]",–
O=C(Cc1c(Cl)cccc1Cl)NCCc1ccc(Cl)cc1,inactive,–
Nc1cccc(Nc2nc(OC(C(F)(F)F)C(F)(F)F)nc(OC(C(F)(F)F)C(F)(F)F)n2)c1,"inconclusive [inhibitor, single point]",–
